In the supplement of paper PMC4967469:
Lines with a small IC50 respond at low doses; fits outside the tested doses are given as limits. For AUC the same curve is integrated over the 256-fold range of doses and scaled to a fraction; it is 1 without any effect and falls as sensitivity rises. The top dose, if marked as inferred, was derived from the fitted curves, not read from the paper.

Legend:
AICAR = compound: NC(=O)c1ncn([C@@H]2O[C@H](CO)[C@@H](O)[C@H]2O)c1N [AICAR]; assay: Viability of human cancer cell lines after 72 h of drug (GDSC screen); details: top dose 2000 µM; top dose inferred
Description: (§1)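 Human cancer cell lines in 384-well plates, medium with 10% serum, drug for 72 h over a 256-fold dose range (nine 2-fold or five 4-fold steps up to the top dose). Adherent lines were fixed and stained with the nucleic acid dye Syto60, suspension lines read with resazurin; signal relative to control wells, capped at 0 and 100%. One two-parameter sigmoid per drug and line, fitted in a mixed model over all curves with the slope shared within a line.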

GSK429286A = compound: CC1=C(C(=O)Nc2cc3cn[nH]c3cc2F)C(c2ccc(C(F)(F)F)cc2)CC(=O)N1 [GSK429286A]; assay: as above; details: top dose inferred
Description: as §1

Cell Line	AUC (AICAR)	IC50 (AICAR)	AUC (GSK429286A)	IC50 (GSK429286A)
OCI-LY7 (B-cell lymphoma, suspension)	0.866	1000 µM	–	–
MOLT-16 (T-cell lymphoblastic leukaemia, suspension)	0.75	543 µM	–	–
MM1S (myeloma, suspension)	0.727	530 µM	–	–
DIFI (large intestine, adherent)	0.94	> 2000 µM	–	–
CML-T1 (chronic myeloid leukaemia, suspension)	0.685	372 µM	–	–
BALL-1 (B-cell leukaemia, suspension)	0.783	617 µM	–	–
NCI-H146 (small cell lung carcinoma, suspension)	0.881	1370 µM	–	–
VMRC-LCD (lung adenocarcinoma, adherent)	0.993	> 2000 µM	–	–
MHH-CALL-2 (B-cell leukaemia, suspension)	0.851	954 µM	–	–
EW-22 (Ewing sarcoma, adherent)	0.946	> 2000 µM	–	–
MEL-HO (melanoma, adherent)	0.986	> 2000 µM	–	–
NCI-N87 (stomach, adherent)	0.833	> 2000 µM	–	–
CRO-AP2 (B-cell lymphoma, suspension)	0.666	337 µM	–	–
CL-34 (large intestine, adherent)	0.946	> 2000 µM	–	–
JHOS-4 (ovary, adherent)	0.928	> 2000 µM	–	–
SK-GT-2 (stomach, adherent)	0.752	696 µM	–	–
RCH-ACV (B-cell leukaemia, suspension)	0.487	116 µM	–	–
MOLM-16 (acute myeloid leukaemia, suspension)	0.86	1350 µM	–	–
KNS-62 (lung squamous cell carcinoma, adherent)	0.814	1770 µM	–	–
IGROV-1 (ovary, adherent)	0.954	> 2000 µM	–	–
BT-549 (breast, adherent)	0.916	> 2000 µM	–	–

Cell Line	AUC (AICAR)	IC50 (AICAR)	AUC (GSK429286A)	IC50 (GSK429286A)
TC-YIK (cervix, suspension)	0.708	440 µM	–	–
HCC-366 (non-small cell lung carcinoma, adherent)	0.832	1350 µM	–	–
CL-40 (large intestine, adherent)	0.96	> 2000 µM	–	–
U-266 (myeloma, semi-adherent)	0.9	> 2000 µM	–	–
ZR-75-30 (breast, adherent)	0.904	> 2000 µM	–	–
NCI-H929 (myeloma, suspension)	0.733	508 µM	–	–
SK-MEL-31 (melanoma, adherent)	0.963	> 2000 µM	–	–
NCC010 (kidney, adherent)	0.95	> 2000 µM	–	–
KATOIII (stomach, semi-adherent)	0.873	1650 µM	–	–
JEKO-1 (B-cell lymphoma, suspension)	0.571	194 µM	–	–
NCI-H835 (lung carcinoid, suspension)	0.967	> 2000 µM	–	–
NCI-H1105 (small cell lung carcinoma, suspension)	0.98	> 2000 µM	–	–
RH-18 (rhabdomyosarcoma, adherent)	0.9	> 2000 µM	–	–
NCI-H508 (large intestine, semi-adherent)	0.779	1510 µM	–	–
KARPAS-1106P (B-cell lymphoma, suspension)	0.832	978 µM	–	–
PWR-1E (prostate, adherent)	0.936	> 2000 µM	–	–
SUP-B8 (B-cell leukaemia, suspension)	0.832	1270 µM	–	–
A549 (lung adenocarcinoma, adherent)	0.898	> 2000 µM	–	–
SW1088 (glioma, adherent, top dose 20 µM)	–	–	0.959	> 20 µM
MOLT-13 (T-cell lymphoblastic leukaemia, suspension, top dose 20 µM)	–	–	0.869	14.8 µM
HCC38 (breast, adherent, top dose 20 µM)	–	–	0.958	> 20 µM

Cell Line	AUC (AICAR)	IC50 (AICAR)	AUC (GSK429286A)	IC50 (GSK429286A)
T47D (breast, adherent, top dose 20 µM)	–	–	0.976	> 20 µM
SW684 (fibrosarcoma, adherent, top dose 20 µM)	–	–	0.983	> 20 µM
P32-ISH (Burkitt lymphoma, suspension, top dose 20 µM)	–	–	0.964	> 20 µM
UMC-11 (lung carcinoid, adherent, top dose 20 µM)	–	–	0.969	> 20 µM
GCIY (stomach, adherent, top dose 20 µM)	–	–	0.984	> 20 µM
ESO51 (oesophagus, semi-adherent, top dose 20 µM)	–	–	0.974	> 20 µM
EGI-1 (biliary tract, adherent, top dose 20 µM)	–	–	0.982	> 20 µM
NCI-H1993 (lung adenocarcinoma, adherent, top dose 20 µM)	–	–	0.974	> 20 µM
K5 (thyroid, adherent, top dose 20 µM)	–	–	0.987	> 20 µM
KMS-12-BM (myeloma, suspension, top dose 20 µM)	–	–	0.983	> 20 µM
HCC-44 (lung adenocarcinoma, adherent, top dose 20 µM)	–	–	0.955	> 20 µM
EB2 (Burkitt lymphoma, suspension, top dose 20 µM)	–	–	0.957	> 20 µM
HCC1954 (breast, adherent, top dose 20 µM)	–	–	0.985	> 20 µM
MFE-280 (endometrium, adherent, top dose 20 µM)	–	–	0.982	> 20 µM
CPC-N (small cell lung carcinoma, suspension, top dose 20 µM)	–	–	0.978	> 20 µM
HC-1 (hairy cell leukaemia, suspension, top dose 20 µM)	–	–	0.972	> 20 µM
NCI-H2196 (small cell lung carcinoma, adherent, top dose 20 µM)	–	–	0.987	> 20 µM
COLO-824 (breast, adherent, top dose 20 µM)	–	–	0.982	> 20 µM
BE2-M17 (neuroblastoma, adherent, top dose 20 µM)	–	–	0.985	> 20 µM
201T (lung adenocarcinoma, adherent, top dose 20 µM)	–	–	0.968	> 20 µM
